{"source": "PubChem BioAssay AID1477", "about": "(National Center for Advancing Translational Sciences (NCATS), 2009)", "note": "The whole screen tested about 230,000 compounds, of which fewer than 10 were called active. The inconclusive results got no clear call from the source; some entries with a clear call stand among them for comparison. Calls come from the whole dose curve; as a rule, active = well fitted curve in the direction sought with a large enough effect; inconclusive = small, poorly fitted or top-dose-only effect, or effect the other way, or another doubt; inactive = no such curve, though single readings can be large or run the other way. No potency is given beside an inconclusive call; the fits are too rough."}
{"target": "Runt-related transcription factor 1 (Homo sapiens) + Core-binding factor subunit beta (Homo sapiens) (UniProt Q01196+Q13951)", "sequence (Q01196 whole entry, looked up)": "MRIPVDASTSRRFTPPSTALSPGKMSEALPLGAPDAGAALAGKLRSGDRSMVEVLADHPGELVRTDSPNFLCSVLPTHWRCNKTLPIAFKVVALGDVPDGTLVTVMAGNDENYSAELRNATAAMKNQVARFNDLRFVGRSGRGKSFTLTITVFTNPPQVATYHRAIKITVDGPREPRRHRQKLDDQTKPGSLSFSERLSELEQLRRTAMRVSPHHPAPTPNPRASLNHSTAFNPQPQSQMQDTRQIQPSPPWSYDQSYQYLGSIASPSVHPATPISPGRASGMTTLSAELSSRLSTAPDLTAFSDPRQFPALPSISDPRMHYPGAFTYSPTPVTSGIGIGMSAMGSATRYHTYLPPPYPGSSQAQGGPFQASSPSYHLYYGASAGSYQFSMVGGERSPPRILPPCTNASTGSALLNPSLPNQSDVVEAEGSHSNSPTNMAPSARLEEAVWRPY", "sequence (Q13951 whole entry, looked up)": "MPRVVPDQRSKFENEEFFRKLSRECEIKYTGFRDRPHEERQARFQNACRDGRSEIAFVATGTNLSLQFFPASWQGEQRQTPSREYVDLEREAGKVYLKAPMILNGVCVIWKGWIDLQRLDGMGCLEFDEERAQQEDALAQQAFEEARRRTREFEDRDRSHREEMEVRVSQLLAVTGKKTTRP", "assay": "qHTS Assay for Compounds Blocking the Interaction Between CBF-beta and RUNX1 for the Treatment of Acute Myeloid Leukemia; for activity, negative = inhibition: % of control where 0% means no effect", "conditions": "AlphaScreen CBFb-His/RUNX1-biotin binding, biochemical; activity, negative = inhibition: at 59.8 µM (top of the series) unless noted", "outline": "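His-tagged CBF-beta and biotinylated RUNX1 (30 nM each) were premixed 20 min at room temperature, exposed to compound for 15 min, then given nickel-chelate and streptavidin AlphaScreen beads (50 ng each). After 90 min, AlphaScreen signal was read.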"}
{"compound": "OC[C@@H]1OC(O)[C@H](O)[C@H](O)[C@H]1O", "note": "(some centres not stated)", "activity, negative = inhibition": "inactive: 5.64%"}
{"compound": "NC(=O)c1ccc(-n2nnnc2SCC(=O)Nc2ccc(N3CCOCC3)c(Cl)c2)cc1", "activity, negative = inhibition": "inactive: 3.94%"}
{"compound": "O=C1CC(c2ccco2)CC(O)=C1C=Nc1cc(Cl)ccc1O", "note": "(configuration not stated)", "Potency": "inconclusive [inhibitor, partial curve]"}
{"compound": "Cc1ccc(-c2nn(C)c(=O)c3ccccc23)cc1CO", "activity, negative = inhibition": "inactive: 11%"}
{"compound": "O=C(/C=C/c1cccc([N+](=O)[O-])c1)NCCSCc1ccccc1Cl", "Potency": "inconclusive [inhibitor, single point]"}
{"compound": "O=C(CNC(=S)NC(=O)c1ccccc1Br)c1ccccc1", "activity, negative = inhibition": "inactive: -5.46%"}
{"compound": "Nc1ccc(-c2ccc(N)c(C(=O)O)c2)cc1C(=O)O", "Potency": "inconclusive [activator, partial curve]"}
{"compound": "Oc1c(N=NC(=S)Nc2ccccc2F)c2ccccc2n1Cc1ccccc1Cl", "Potency": "inconclusive [inhibitor, partial curve]"}
{"compound": "COc1ccc(Nc2nc(NCc3ccco3)nc(N/N=C/c3ccccc3F)n2)cc1", "Potency": "inconclusive [inhibitor, single point]"}
{"compound": "O=C(c1ccc(-n2c(SCc3cc(F)ccc3F)nc3ccccc3c2=O)cc1)N1CCOCC1", "activity, negative = inhibition": "inactive: 11.5%"}
{"compound": "COc1cccc(NS(=O)(=O)c2ccc(Br)s2)c1", "activity, negative = inhibition": "inactive: -0.161%"}
{"compound": "Cc1ccccc1C(=O)NC1CCN(C(=O)N(c2ccccc2)c2ccccc2)CC1", "activity, negative = inhibition": "inactive: 0.272%"}
{"compound": "CCOC(=O)C1=C(C)NC2=C(C(=O)c3ccccc32)C1c1ccc([N+](=O)[O-])o1", "note": "(configuration not stated)", "Potency": "inconclusive [inhibitor, partial curve]"}
{"compound": "O=C1C2CC=C(Cl)CC2C(=O)N1c1ncn[nH]1", "note": "(configuration not stated)", "Potency": "inconclusive [inhibitor, single point]"}
{"compound": "C=CCOC(=O)C1=C(C)NC(C)=C(C(=O)OCC=C)C1/C=C/c1ccccc1", "Potency": "inconclusive [activator, partial curve]"}
{"compound": "CCOc1cc(/C=C2/NC(=S)NC2=O)ccc1OCc1ccc([N+](=O)[O-])cc1", "Potency": "inconclusive [inhibitor, single point]"}
{"compound": "CCc1ccc(NC(=O)CSc2nc(NS(=O)(=O)c3ccccc3)cc(=O)[nH]2)cc1", "Potency": "inconclusive [activator, partial curve]"}
{"compound": "CCOc1ccc(-c2ccc(/C=C3/C(=N)N4C=CSC4=NC3=O)o2)c([N+](=O)[O-])c1", "activity, negative = inhibition": "inactive: -8.39%"}
{"compound": "CSC1=NSC2=NC(=O)/C(=C/c3coc4ccccc4c3=O)C(=N)N12", "activity, negative = inhibition": "inactive: -7.96%"}
{"compound": "N#CC(C#N)=Cc1cc(O)c(O)c([N+](=O)[O-])c1", "Potency": "inconclusive [inhibitor, single point]"}
{"compound": "CNc1ccccc1C(=O)OCC(=O)c1ccc(F)cc1", "Potency": "inconclusive [activator, partial curve]"}
{"compound": "[O-]/C(=C(\\C(=S)Nc1ccc(SC(F)F)cc1)[n+]1cccc(CO)c1)c1ccc(Cl)s1", "Potency": "inconclusive [inhibitor, single point]"}
{"compound": "COc1ccc(CCN2C(=O)CC(Nc3ccc(N4CCOCC4)cc3)C2=O)cc1OC", "note": "(configuration not stated)", "Potency": "inconclusive [inhibitor, single point]"}
{"compound": "CCCCN1C(=O)/C(=C/C=C2\\N(C)c3ccccc3C2(C)C)SC1=S", "activity, negative = inhibition": "inactive: -11.3%"}
{"compound": "CCN1CCc2nc(SCC(=O)Nc3ccc(OC)cc3)c(C#N)cc2C1", "Potency": "inconclusive [inhibitor, single point]"}
{"compound": "CN(C)c1nc(-c2ccccc2)cc(C(F)(F)F)c1C#N", "Potency": "inconclusive [activator, single point]"}
{"compound": "N/C(Cc1ccc(Cl)cc1Cl)=N\\OC(=O)c1ccccc1", "Potency": "inconclusive [activator, single point]"}
{"compound": "COC(=O)C1=CN(C2CCCCC2)C=C(C(=O)OC)C1c1ccc2c(c1)OCO2", "Potency": "inconclusive [activator, partial curve]"}
{"compound": "Cc1ccc(S(=O)(=O)N2CCN(c3c([N+](=O)[O-])cc(C(F)(F)F)cc3[N+](=O)[O-])CC2)cc1", "Potency": "inconclusive [inhibitor, partial curve]"}
{"compound": "Cc1nnc2ccc(-c3ccc(NC(=O)Cc4cccs4)cc3)nn12", "Potency": "inconclusive [inhibitor, single point]"}
{"compound": "COc1cccc(C2CN(c3ccc(F)cc3F)N=C2c2cccs2)c1OC", "note": "(configuration not stated)", "Potency": "inconclusive [activator, partial curve]"}
{"compound": "CCCc1n(CC)c2ccccc2[n+]1CC(O)COC1CCCCC1", "note": "(configuration not stated)", "activity, negative = inhibition": "inactive: -0.786%"}
{"compound": "CCc1c(C)sc(NC(=S)N2CCN(S(C)(=O)=O)CC2)c1C(=O)OC", "activity, negative = inhibition": "inactive: 1.73%"}
{"compound": "CC1(OC(=O)C2CCCC2)C(=O)C=C2C=C(c3ccsc3)N(Cc3ccco3)C=C2C1=O", "note": "(configuration not stated)", "Potency": "inconclusive [inhibitor, single point]"}
{"compound": "O=C(NCCCN1CCCCCC1)C1CC(=O)N(C2CCCC2)C1", "note": "(configuration not stated)", "Potency": "inconclusive [activator, single point]"}
{"compound": "Nc1nc(Br)c2ccccc2c1-c1ccccc1", "Potency": "inconclusive [activator, single point]"}
{"compound": "O=C(/C=C/c1ccc([N+](=O)[O-])cc1)NCc1ccccn1", "Potency": "inconclusive [activator, partial curve, poor fit]"}
{"compound": "O=C1/C(=C/c2ccco2)SC(=S)N1CC1CCCO1", "note": "(configuration not stated)", "Potency": "inconclusive [inhibitor, partial curve]"}
{"compound": "CCc1cccc2c(C(=S)N3CCCC3)c[nH]c12", "activity, negative = inhibition": "inactive: 0.36%"}
{"compound": "Cc1cc2c(C)ccc(C)c2nc1SCC(=O)c1cccs1", "Potency": "inconclusive [activator, single point]"}
{"compound": "CCn1c(SCC(=O)O)nc2sc3c(c2c1=O)CCC3", "Potency": "inconclusive [inhibitor, partial curve]"}
{"compound": "O=C(CSc1nnc(CN2CCOCC2)n1-c1ccccc1)Nc1ccc(Cl)cc1", "activity, negative = inhibition": "inactive: -2.71%"}
{"compound": "COc1cc(/C=N/N=C(/C(=O)c2ccccc2)c2ccccc2)cc(OC)c1O", "Potency": "inconclusive [inhibitor, single point]"}
{"compound": "COC(=O)Cn1c2[n+](c3ccccc31)CC(O)CS2", "note": "(configuration not stated)", "activity, negative = inhibition": "inactive: 7.61%"}
{"compound": "CCN(CC)S(=O)(=O)c1ccc(C(=O)NCc2n[nH]c(=S)n2-c2ccccc2OC)cc1", "activity, negative = inhibition": "inactive: -2.28%"}
{"compound": "CC1CCC(C(C)C)C2=C1C(C#N)(C#N)C(C#N)(C#N)C(c1ccccc1)N2", "note": "(configuration not stated)", "activity, negative = inhibition": "inactive: -11.2%"}
{"compound": "CCC/C=C(\\CCC)C(NC(=O)CCc1ccccc1)c1ccc(C(F)(F)F)cc1", "note": "(configuration not stated)", "Potency": "inconclusive [activator, partial curve]"}
{"compound": "COc1ccc(NC(=O)c2ccc3c(SCC(=O)O)c4c(nc3c2)CCCC4)cc1Cl", "Potency": "inconclusive [inhibitor, single point]"}
{"compound": "CC1CC=CC2C1C(=O)N(Cc1ccccc1)C2c1ccc(-c2ccc(F)cc2)cc1F", "note": "(configuration not stated)", "Potency": "inconclusive [activator, partial curve]"}
{"compound": "COc1cccc(N2CCN(CC(=O)NC(=O)NCc3ccco3)CC2)c1", "Potency": "inconclusive [inhibitor, partial curve]"}
{"compound": "O=C(NNC(=O)c1ccc2ncccc2c1)c1ccc(Cl)cc1", "Potency": "inconclusive [inhibitor, single point]"}
{"compound": "COc1ccc(-n2c(C)nc3cc(C(=O)NCc4ccco4)ccc32)cc1", "activity, negative = inhibition": "inactive: -8.82%"}
{"compound": "S=C(NCCN1CCOCC1)Nc1ccc(Cl)cc1Cl", "activity, negative = inhibition": "inactive: 0.373%"}
{"compound": "Cc1ccc2nc(SCC(=O)N3CCOCC3)[nH]c2c1", "activity, negative = inhibition": "inactive: 0.506%"}
{"compound": "CCOCCCNC(=S)NCCCNc1nc2c(C)cc(C)cc2cc1C#N", "Potency": "inconclusive [activator, partial curve]"}
{"compound": "N#Cc1cc([N+](=O)[O-])ccc1NC(=O)COC(=O)C12CC3CC(CC(C3)C1)C2", "Potency": "inconclusive [inhibitor, single point]"}
{"compound": "Cc1ccc(O)c(N=Nc2ccc(S(=O)(=O)N3CCCC3)cc2)c1", "Potency": "inconclusive [inhibitor, partial curve]"}
{"compound": "CN(C)c1ccnc(SCc2ccccc2Cl)c1C#N", "Potency": "inconclusive [activator, single point]"}
{"compound": "O=C(COc1cccc2cccnc12)Nc1nccs1", "activity, negative = inhibition": "inactive: -2.32%"}
{"compound": "C=CCNc1nnc(SC2CC(=O)N(c3ccc(OC)cc3)C2=O)s1", "note": "(configuration not stated)", "activity, negative = inhibition": "inactive: -1.78%"}
{"compound": "O=C(O)CCCNc1ccc(S(=O)(=O)Nc2ccccc2C(=O)O)cc1C(=O)O", "activity, negative = inhibition": "inactive: 6.96%"}
{"compound": "COC(=O)C1=C(C)N(C(C)c2ccccc2)C(=O)/C1=C\\c1ccco1", "note": "(configuration not stated)", "Potency": "inconclusive [inhibitor, single point]"}
{"compound": "CCCCNC(=O)CCNS(=O)(=O)c1ccc(C)cc1", "activity, negative = inhibition": "inactive: -1.84%"}
{"compound": "Cn1nc(C(F)(F)F)cc1C(=O)Nc1ccc(Cl)cc1", "Potency": "inconclusive [activator, partial curve]"}
{"compound": "O=C(O)c1cc(O)c2c(c1)C(=O)c1cc(O)cc(O)c1C2=O", "Potency": "inconclusive [inhibitor, single point]"}
{"compound": "Cn1c(SCc2cccc([N+](=O)[O-])c2)nc2c(c1=O)SCC2", "Potency": "inconclusive [inhibitor, partial curve, poor fit]"}
{"compound": "CCOc1ncccc1C(=O)OCc1c(F)cccc1Cl", "Potency": "inconclusive [activator, single point]"}
{"compound": "COc1ccc(C(c2nnnn2C2CCCCC2)N2CCN(c3ccc(OC)cc3)CC2)cc1", "note": "(configuration not stated)", "Potency": "inconclusive [inhibitor, single point]"}
{"compound": "O=C(C1=C[C@@H](c2ccccc2)C[C@@H](OCCCCO)O1)N1CCOCC1", "activity, negative = inhibition": "inactive: 14.5%"}
{"compound": "NNc1nc2ccc(F)cc2s1", "Potency": "inconclusive [inhibitor, single point]"}
{"compound": "Cc1ccccc1OCC(=O)NNC(=O)CCc1ccccc1", "activity, negative = inhibition": "inactive: 1.35%"}
{"compound": "Cc1cccc(CN2CCN(Cc3cnn(-c4ccccc4F)c3)CC2CCO)n1", "note": "(configuration not stated)", "Potency": "inconclusive [activator, full curve]"}
